# Measurements as given in the supplement of paper PMC8728848.
# Some of the results follow.
# How the values were obtained:
# Test in all cases: glycan array binding signal (z-score within array); higher = stronger binding
# Details in all cases: glycan notation: IUPAC condensed, linker removed; mutation: N288D, K313I
# [1] = target: Gal(b1-4)GalNAc(b1-3)[Fuc(a1-2)]Gal(b1-4)GlcNAc
# Method in brief: (§1)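 Glycan array data came from 3228 arrays in the Consortium for Functional Glycomics database, and only arrays with an available protein sequence were kept. Glycan names were put into IUPAC-condensed notation, and columns mapping to the same glycan were averaged. The binding signal is a within-array Z-score, averaged across arrays of one protein sequence run at different concentrations or buffers and across linkers. A negative Z-score can be read as non-binding.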
# Gal(b1-4)Glc = target: Gal(b1-4)Glc
# Method in brief: as §1
# Gal(b1-4)Glc6S = target: Gal(b1-4)Glc6S
# Method in brief: as §1
# Gal(b1-4)GlcNAc = target: Gal(b1-4)GlcNAc
# Method in brief: as §1
# [2] = target: Gal(b1-4)GlcNAc(a1-6)Gal(b1-4)GlcNAc
# Method in brief: as §1
# Gal(b1-4)GlcNAc(b1-2)Man = target: Gal(b1-4)GlcNAc(b1-2)Man
# Method in brief: as §1
# [3] = target: Gal(b1-4)GlcNAc(b1-2)Man(a1-3)Man(b1-4)GlcNAc(b1-4)GlcNAc
# Method in brief: as §1
# [4] = target: Gal(b1-4)GlcNAc(b1-2)Man(a1-3)[Gal(b1-4)GlcNAc(b1-2)Man(a1-6)]Man(b1-4)GlcNAc(b1-4)GlcNAc
# Method in brief: as §1
# [5] = target: Gal(b1-4)GlcNAc(b1-2)Man(a1-3)[Gal(b1-4)GlcNAc(b1-2)Man(a1-6)]Man(b1-4)GlcNAc(b1-4)[Fuc(a1-6)]GlcNAc
# Method in brief: as §1
# [6] = target: Gal(b1-4)GlcNAc(b1-2)Man(a1-3)[Gal(b1-4)GlcNAc(b1-2)Man(a1-6)][Gal(b1-4)GlcNAc(b1-4)]Man(b1-4)GlcNAc(b1-4)[Fuc(a1-6)]GlcNAc
# Method in brief: as §1
# [7] = target: Gal(b1-4)GlcNAc(b1-2)Man(a1-3)[Gal(b1-4)GlcNAc(b1-2)Man(a1-6)][GlcNAc(b1-4)]Man(b1-4)GlcNAc(b1-4)[Fuc(a1-6)]GlcNAc
# Method in brief: as §1
# [8] = target: Gal(b1-4)GlcNAc(b1-2)Man(a1-3)[GlcNAc(b1-2)Man(a1-6)]Man(b1-4)GlcNAc(b1-4)GlcNAc
# Method in brief: as §1
# [9] = target: Gal(b1-4)GlcNAc(b1-2)Man(a1-3)[GlcNAc(b1-4)][Gal(b1-4)GlcNAc(b1-2)Man(a1-6)]Man(b1-4)GlcNAc(b1-4)GlcNAc
# Method in brief: as §1
# [10] = target: Gal(b1-4)GlcNAc(b1-2)Man(a1-3)[Man(a1-6)]Man(b1-4)GlcNAc(b1-4)GlcNAc
# Method in brief: as §1
# [11] = target: Gal(b1-4)GlcNAc(b1-2)Man(a1-6)Man(b1-4)GlcNAc(b1-4)GlcNAc
# Method in brief: as §1
# [12] = target: Gal(b1-4)GlcNAc(b1-2)Man(a1-6)[GlcNAc(b1-2)Man(a1-3)]Man(b1-4)GlcNAc(b1-4)GlcNAc
# Method in brief: as §1
# [13] = target: Gal(b1-4)GlcNAc(b1-2)Man(a1-6)[Man(a1-3)]Man(b1-4)GlcNAc(b1-4)GlcNAc
# Method in brief: as §1
# [14] = target: Gal(b1-4)GlcNAc(b1-2)[Gal(b1-4)GlcNAc(b1-4)]Man(a1-3)[Gal(b1-4)GlcNAc(b1-2)Man(a1-6)]Man(b1-4)GlcNAc(b1-4)GlcNAc
# Method in brief: as §1
# [15] = target: Gal(b1-4)GlcNAc(b1-2)[Gal(b1-4)GlcNAc(b1-4)]Man(a1-3)[Gal(b1-4)GlcNAc(b1-2)[Gal(b1-4)GlcNAc(b1-6)]Man(a1-6)]Man(b1-4)GlcNAc(b1-4)GlcNAc
# Method in brief: as §1
# [16] = target: Gal(b1-4)GlcNAc(b1-2)[Gal(b1-4)GlcNAc(b1-4)]Man(a1-3)[GlcNAc(b1-4)][Gal(b1-4)GlcNAc(b1-2)Man(a1-6)]Man(b1-4)GlcNAc(b1-4)GlcNAc
# Method in brief: as §1
# [17] = target: Gal(b1-4)GlcNAc(b1-2)[Gal(b1-4)GlcNAc(b1-4)]Man(a1-3)[GlcNAc(b1-4)][Gal(b1-4)GlcNAc(b1-2)[Gal(b1-4)GlcNAc(b1-6)]Man(a1-6)]Man(b1-4)GlcNAc(b1-4)GlcNAc
# Method in brief: as §1
# [18] = target: Gal(b1-4)GlcNAc(b1-2)[Gal(b1-4)GlcNAc(b1-6)]Man(a1-6)[Gal(b1-4)GlcNAc(b1-2)Man(a1-3)]Man(b1-4)GlcNAc(b1-4)GlcNAc
# Method in brief: as §1
binder,measurement,setting,value
"Langerin (Homo sapiens), Q9UJ71 (protein) STLNAQIPELKSDLEKASALNTKIRALQGSLENMSKLLKRQNDILQVVSQGWKYFKGNFYYFSLIPKTWYSAEQFCVSRNSHLTSVTSESEQEFLYKTAGGLIYWIGLTKAGMEGDWSWVDDTPFNKVQSARFWIPGEPNDAGNNEHCGNIKAPSLQAWNDAPCDITFLFICKRPYVPSEP",glycan array binding signal (z-score),[1],-0.285
same,glycan array binding signal (z-score),Gal(b1-4)Glc,-0.276
same,glycan array binding signal (z-score),Gal(b1-4)Glc6S,-0.072
same,glycan array binding signal (z-score),Gal(b1-4)GlcNAc,-0.269
same,glycan array binding signal (z-score),[2],-0.185
same,glycan array binding signal (z-score),Gal(b1-4)GlcNAc(b1-2)Man,-0.102
same,glycan array binding signal (z-score),[3],-0.101
same,glycan array binding signal (z-score),[4],-0.207
same,glycan array binding signal (z-score),[5],0.079
same,glycan array binding signal (z-score),[6],-0.009
same,glycan array binding signal (z-score),[7],-0.293
same,glycan array binding signal (z-score),[8],-0.225
same,glycan array binding signal (z-score),[9],-0.237
same,glycan array binding signal (z-score),[10],0.009
same,glycan array binding signal (z-score),[11],-0.198
same,glycan array binding signal (z-score),[12],-0.162
same,glycan array binding signal (z-score),[13],-0.086
same,glycan array binding signal (z-score),[14],-0.279
same,glycan array binding signal (z-score),[15],-0.351
same,glycan array binding signal (z-score),[16],-0.32
same,glycan array binding signal (z-score),[17],-0.293
same,glycan array binding signal (z-score),[18],-0.02
